# Results published in the supplement of paper PMC3334620.
# Over roughly 33,000 sequences, “E-score (-0.5 to 0.5)” has its median near -0.021; the highest 2% begin near 0.32. This is one part of the list.
# Molecular target: T1, Zap1 (UniProt P47043)
# T1 sequence: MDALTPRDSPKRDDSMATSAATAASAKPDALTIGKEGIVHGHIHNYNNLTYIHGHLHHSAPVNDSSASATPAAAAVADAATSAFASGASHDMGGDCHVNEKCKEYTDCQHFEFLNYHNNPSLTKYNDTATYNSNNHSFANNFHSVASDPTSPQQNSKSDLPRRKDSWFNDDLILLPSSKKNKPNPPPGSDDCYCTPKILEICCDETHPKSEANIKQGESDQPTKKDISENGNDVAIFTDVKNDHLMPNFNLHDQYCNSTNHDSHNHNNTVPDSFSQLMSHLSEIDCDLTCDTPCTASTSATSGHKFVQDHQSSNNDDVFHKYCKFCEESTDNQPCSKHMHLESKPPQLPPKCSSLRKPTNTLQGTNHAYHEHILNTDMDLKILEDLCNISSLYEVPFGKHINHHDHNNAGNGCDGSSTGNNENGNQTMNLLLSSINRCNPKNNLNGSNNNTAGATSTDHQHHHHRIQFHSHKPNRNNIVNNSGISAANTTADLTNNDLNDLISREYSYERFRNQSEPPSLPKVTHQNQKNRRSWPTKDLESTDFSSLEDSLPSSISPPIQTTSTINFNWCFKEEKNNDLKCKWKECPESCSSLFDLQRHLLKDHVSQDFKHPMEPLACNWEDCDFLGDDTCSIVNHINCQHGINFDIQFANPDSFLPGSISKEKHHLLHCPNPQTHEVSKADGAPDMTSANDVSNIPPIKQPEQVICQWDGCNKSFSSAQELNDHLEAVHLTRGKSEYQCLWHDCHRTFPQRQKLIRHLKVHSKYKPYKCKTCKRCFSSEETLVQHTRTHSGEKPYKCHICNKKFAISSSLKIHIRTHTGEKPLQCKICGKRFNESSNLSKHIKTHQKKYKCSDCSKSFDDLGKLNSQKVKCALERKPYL
# Experiment: PBM E-score (8-mer binding enrichment) (E-score (-0.5 to 0.5)); higher = stronger / more preferred TF binding; most listed sequences are background and not binding sites
# Conditions: protein concentration: 200 nM; construct: GST-full length
# Protocol: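 Universal 'all 10-mer' protein binding microarrays (Agilent AMADID 015681) probed with GST-tagged S. cerevisiae TFs (full-length or DBD) made by in vitro transcription/translation (PURExpress), about 100-200 nM. Bound TF was detected with fluorescent anti-GST. Each ungapped 8-mer (which stands for itself and its reverse complement) is scored by the PBM enrichment score (E-score), a modified Wilcoxon-Mann-Whitney statistic from -0.5 to +0.5, computed with the Universal PBM Analysis Suite. Scale: above 0.35 generally sequence-specific binding.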
row,Sequence,PBM E-score
1,GCGGAGAC,-0.0389
2,AGTAGTGC,-0.141
3,GTGTCTGA,-0.113
4,CGGAAGCC,-0.219
5,GCAACATA,-0.139
6,AGTGGCGA,-0.0531
7,GCGAAGAA,-0.0184
8,GTGTCCTA,0.135
9,ATTCCACG,0.05
10,TGACACCA,-0.0107
11,TCCGCACA,0.029
12,CGTGGCGA,-0.0347
13,ATAAAAAA,0.162
14,CACTCCTA,-0.126
15,AACGTTAG,-0.0828
16,GGGTACTA,0.335
17,CGGTTCAC,-0.082
18,CTAAATTC,-0.0115
19,GACTAAGA,0.0168
20,AAGACGTA,0.00703
21,AAGCGGAT,-0.0563
22,ATGAGGTA,0.324
23,ATCAGTTA,0.124
24,ACGATGAT,-0.113
25,AGGTGGAT,-0.0931

row,Sequence,PBM E-score
1,CTTTTCTA,-0.00713
2,CTTCTAAA,-0.0443
3,TAGACTGA,-0.182
4,GTTCGGCA,-0.0616
5,CGATCCAG,-0.184
6,ACTCACCA,0.00662
7,ACGCTGAG,-0.208
8,AAGACCCC,0.323
9,AAAATACC,0.264
10,TAATGGAA,0.126
11,CGAATCAC,-0.12
12,ATTTGAGA,0.0352
13,GTGTTCTA,0.183
14,ACGGCGTA,-0.228
15,AAGGAACC,0.248
16,AAAAGTAT,0.0108
17,AGAAGTGC,-0.158
18,AATCAACC,0.13
19,AGCAAGCT,-0.175
20,CTAAGAGC,-0.108
21,AACCTCGA,0.367
22,ATCCATTG,-0.0306
23,GGCATGGA,-0.228
24,AGCGCCAG,-0.256
25,CTGAATGC,-0.212

row,Sequence,PBM E-score
1,CCTGTCAA,0.0108
2,ACTCAGGC,-0.0941
3,GTTATGTA,0.12
4,AGCACCCT,0.317
5,AGGAGCTG,-0.185
6,AAGGGCGA,-0.128
7,CACACTCC,-0.152
8,ACAGGGCG,-0.107
9,TCCAGGGA,-0.238
10,ATCCCGTG,0.0154
11,AACATATC,-0.00354
12,CGGGAGAC,-0.169
13,GCTCGGGA,-0.401
14,ATGTGTGA,0.00827
15,ATCTTTCC,-0.147
16,GATACGTA,-0.0479
17,AAGTAATC,0.119
18,CCATGCCA,-0.0723
19,CAAGGTCA,0.386
20,ATTCTCGC,-0.317
21,AGTGAAAG,0.0651
22,AGGTGCCC,0.0072
23,CAGGATAG,0.106
24,CAAACTAG,0.0331
25,ATGAACAT,0.1

row,Sequence,PBM E-score
1,GAACAGTC,-0.129
2,ATCTTGGC,-0.329
3,AGAAAGAG,-0.115
4,CCCGTTTC,-0.0978
5,CGCCCAAG,-0.0736
6,TCGAATAA,0.0261
7,CCAGACAC,-0.0801
8,CTCGGTCC,-0.103
9,CATTACCC,0.282
10,CGTGATAG,-0.0351
11,CGGTTACA,0.411
12,CTAAACTA,0.144
13,CATCGCCC,-0.2
14,ACAGGCTA,-0.102
15,TGATTAAA,0.144
16,ACCGAGAT,0.0357
17,ATTTTAAG,0.0616
18,AGGTAACG,0.19
19,AAGGGCGT,-0.0596
20,CATTTTCG,0.0212
21,CACTCTCG,-0.0581
22,GGATAGAA,0.0515
23,CCTGCGAG,-0.0249
24,GCTAGACA,-0.156
25,GCCCTGCA,-0.195

row,Sequence,PBM E-score
1,CGGCTGTA,-0.148
2,CTCCTGAA,0.0319
3,AGACGTAA,0.0862
4,AACCGAAG,0.0612
5,AAGATACC,0.214
6,ACGACCGG,-0.0537
7,AAACTGAA,0.0737
8,ACTTATTG,0.0522
9,AAGGGTTC,0.339
10,ATTATGTG,0.119
11,ACTTCGCC,-0.172
12,ATGTCGTC,-0.15
13,GGGCCTAA,-0.0919
14,CGAGTTCA,0.125
15,AAGGATAC,0.064
16,CCACGATA,0.0381
17,CCTTTACA,0.189
18,CTCTAATA,0.0821
19,ACCTCGTG,0.348
20,AACAGCCA,-0.0164
21,ATTGGAAC,0.133
22,AATGACCT,0.393
23,GTGTGGAA,-0.0518
24,CCATGGAA,0.128
25,CTCTGTTA,-0.0886

row,Sequence,PBM E-score
1,CTACATCA,0.0866
2,AGGTGATG,0.117
3,GAAAGGAA,-0.0712
4,TAGTATCA,0.155
5,GCACTGTA,0.0139
6,CTGACCAG,0.185
7,ATAGACGG,-0.0589
8,AGCGAGAG,-0.00964
9,AGTAGAGG,-0.196
10,AGTTACGC,-0.0283
11,GCCACGAC,0.0554
12,TAACTGTA,0.174
13,AAAGATAT,0.0932
14,ACCTAATC,0.158
15,GAATGCCC,-0.167
16,ATGTGGAG,-0.0323
17,CACGCCCG,-0.108
18,CCAGATTC,-0.0471
19,TCGCAGCA,-0.0698
20,GAAACATC,-0.0445
21,ATTGCGCG,0.0701
22,GACACGGC,-0.145
23,GGAAGCAA,-0.13
24,ATCATTTA,0.091
25,CATAAGGC,-0.103

row,Sequence,PBM E-score
1,AATACAGT,0.0335
2,CTCACGTA,-0.0614
3,ACATACAA,0.0887
4,GACCTGCA,-0.0408
5,AAGTTTAA,0.0822
6,AAAGGGTT,0.396
7,CGAACGTC,-0.15
8,TACCCCAA,0.363
9,CACTCGGG,-0.0643
10,CCCCAGCG,-0.0867
11,AAACCCTG,0.337
12,AGGTGCTG,0.0105
13,AAAATTAG,-0.0229
14,AACGAGAC,-0.15
15,CATACAAA,0.168
16,CATCCGTC,-0.194
17,CGACAATA,0.0243
18,AGATTGCC,-0.0987
19,GTGATACA,0.0362
20,TCGCATAA,0.177
21,ATGCCTGA,-0.181
22,ATTAGCCC,-0.24
